# Source: publication PMC4336329 (PLoS ONE, 2015)
# Among all 310,000 compounds or so, about 14,000 (4.5%) showed an effect of 50% or more. Effects have a minus sign here. This is one part of the list.
# Target: human ether-à-go-go-related gene (hERG) potassium channel (human, UniProt Q12809)
# Experiment: primary screen, population patch clamp on CHO cells stably expressing hERG
# 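Also: peak tail current of the secondary pulse compared with the same well before compound.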
# human ether-à-go-go-related gene (hERG) potassium channel, sequence (Q12809 whole entry, looked up): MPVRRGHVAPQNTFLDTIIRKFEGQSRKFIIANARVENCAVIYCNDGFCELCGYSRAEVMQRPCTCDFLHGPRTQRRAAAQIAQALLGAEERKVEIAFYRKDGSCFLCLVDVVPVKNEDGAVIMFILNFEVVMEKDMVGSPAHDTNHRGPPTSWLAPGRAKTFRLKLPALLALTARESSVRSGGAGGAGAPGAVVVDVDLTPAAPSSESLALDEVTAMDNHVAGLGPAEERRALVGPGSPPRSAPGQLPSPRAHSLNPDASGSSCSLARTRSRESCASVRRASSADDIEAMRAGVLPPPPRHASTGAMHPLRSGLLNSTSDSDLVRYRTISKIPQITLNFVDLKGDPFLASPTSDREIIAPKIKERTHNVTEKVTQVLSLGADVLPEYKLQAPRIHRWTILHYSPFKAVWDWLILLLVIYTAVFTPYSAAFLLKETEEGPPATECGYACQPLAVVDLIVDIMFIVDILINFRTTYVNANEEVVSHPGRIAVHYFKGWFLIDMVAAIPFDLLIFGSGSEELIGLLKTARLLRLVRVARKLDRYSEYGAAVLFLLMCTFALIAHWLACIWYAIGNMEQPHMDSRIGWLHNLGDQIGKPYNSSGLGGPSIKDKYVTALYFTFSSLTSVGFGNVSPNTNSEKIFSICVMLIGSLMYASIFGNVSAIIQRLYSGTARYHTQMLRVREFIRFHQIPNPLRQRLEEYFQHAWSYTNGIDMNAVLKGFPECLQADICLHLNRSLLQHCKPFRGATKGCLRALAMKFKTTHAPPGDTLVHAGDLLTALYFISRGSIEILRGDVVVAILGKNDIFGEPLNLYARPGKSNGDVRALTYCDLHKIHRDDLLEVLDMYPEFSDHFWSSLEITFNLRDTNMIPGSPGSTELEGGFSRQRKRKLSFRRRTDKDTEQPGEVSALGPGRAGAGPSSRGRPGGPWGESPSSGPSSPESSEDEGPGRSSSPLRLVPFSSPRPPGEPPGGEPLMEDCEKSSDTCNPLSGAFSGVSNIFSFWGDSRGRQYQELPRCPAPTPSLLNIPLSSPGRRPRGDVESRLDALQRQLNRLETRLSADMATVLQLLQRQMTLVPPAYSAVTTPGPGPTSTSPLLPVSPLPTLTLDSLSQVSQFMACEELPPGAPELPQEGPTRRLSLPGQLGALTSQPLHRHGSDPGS
row,Structure (SMILES),"hERG current change (%, negative = inhibition) at 10uM [%]"
1,Cc1ccc2c(c1)nnn2C1CCN(CC(=O)N(c2ccccc2)c2ccccc2)CC1,11.4
2,Cc1ccnc(N2C(=O)c3ccccc3C2Nc2ccc3c(c2)OCCO3)c1 (stereo not drawn),-5.75
3,CC1=C(C)CC(C(=O)Nc2nc(-c3ccc(C)cc3C)c(C)s2)C(C(=O)O)C1 (stereo not drawn),4.6
4,COc1ccccc1OCC(=O)Nc1ccc(S(=O)(=O)N(C)c2ccccc2)cc1,17.8
5,CCOc1ccccc1C(=O)N1CCC(n2nnc3cc(C)ccc32)CC1,-47.4
6,COc1ccc(C2/C=C\CN(S(=O)(=O)/C=C/c3ccccc3)[C@H](Cc3ccccc3)C(=O)N2Cc2ccc(F)cc2)cc1 (stereo partly drawn),8.05
7,CO[C@H]1O[C@H](C)[C@@H](O)C[C@H]1NC(=O)OCc1ccccc1,22.6
8,O=C(O)CS(=O)(=O)c1ccc(C(F)(F)F)cn1,16.8
9,Cc1cc(S(=O)(=O)Nc2cccc(O)c2)c(C)s1,4.94
10,CSc1ccc(/C=N/NC(=O)CN2CCN(Cc3ccc(C)cc3)CC2)cc1,-63.2
11,CC(C)(C)c1csc(NC(=O)c2c(F)c(F)c(F)c(F)c2F)n1,-63.9
12,CCCN(CCC)CCCNC(=O)C1CCC(CNS(=O)(=O)c2cccc3nsnc23)CC1 (stereo not drawn),-10.1
13,Cc1cccc(NC(=O)COC(=O)c2ccc(C)c(S(=O)(=O)N3CCCCC3)c2)c1,-9.99
14,COCCNC(=O)C(c1cccs1)N(Cc1ccccc1)C(=O)Cn1nnc2ccccc21 (stereo not drawn),-8.87
15,CCOC(=O)NC(=O)/C(C#N)=N\Nc1cccc(Cl)c1,17.9
16,COc1cccc(N2CC(=O)Nc3c(oc4nc(-c5ccccc5)cc(C)c34)C2=O)c1,1.92
17,COc1ccccc1CNC(=O)N1CCN(S(=O)(=O)c2ccc(Cl)cc2)CC1,20.7
18,CC1CCN(S(=O)(=O)c2ccc(NC(=O)CN3CCOCC3)cc2)CC1,-13.9
19,CC(=O)N/C(=C/c1ccc2c(c1)OCO2)C(=O)NCC(=O)O,7.09
20,CC(=O)NC(c1cccc([N+](=O)[O-])c1)c1c(OC(C)=O)ccc2ccccc12 (stereo not drawn),-7.72
21,NC(=O)c1nsc(C(=O)N(c2cccc(O)c2)C(C(=O)NC2CCCC2)c2ccc(Cl)cc2)c1N (stereo not drawn),2.73
22,CC1CC(C)CN(c2oc(-c3ccco3)nc2C#N)C1 (stereo not drawn),0.193

row,Structure (SMILES),"hERG current change (%, negative = inhibition) at 10uM [%]"
1,CCc1ccc2nc(N(CCN(C)C)C(=O)/C=C/c3cccs3)sc2c1.Cl,7.53
2,CC1CCN(S(=O)(=O)c2ccc(C(C)C)cc2)CC1,18.3
3,Cc1ccc(C[n+]2cc(-c3ccc(Cl)cc3)n3c2CCC3)cc1.[Cl-],-51.3
4,O=C1CC(NS(=O)(=O)c2cccnc2)CN1c1cccc(F)c1 (stereo not drawn),9.51
5,CN(c1ccc(C(=O)N2CCc3ccccc3C2)cc1)S(C)(=O)=O,-12.4
6,O=C(CN1C(=O)c2ccccc2S1(=O)=O)NCc1ccc(F)cc1,13.4
7,N#CCc1ccc(NS(=O)(=O)c2cccs2)cc1,-11.5
8,NCCCC[C@H]1CN=C(N)N1CCCCC1CCCCC1,-3.84
9,Cc1c(C(=O)Nc2ccc(S(=O)(=O)NCC3CCCO3)cc2)cccc1[N+](=O)[O-] (stereo not drawn),-20.3
10,COc1ccccc1/C=N/OC(=O)c1ccc(C)cc1,12.6
11,CCN(Cc1ccccc1)C1CCN(Cc2ccccc2)CC1,-14.9
12,CC(C)C1CC(C(=O)Nc2ccccc2)C(=O)O1 (stereo not drawn),1.05
13,COc1ccc(N2CCN(C(=O)c3cccc(S(=O)(=O)N4CCOCC4)c3)CC2)cc1,3.68
14,CCOC(=O)c1cc(NC(=O)c2ccc(OC)cc2)c(=O)oc1-c1ccccc1,-5.04
15,COc1cc(/C=N/N2CCN(Cc3ccc(Cl)cc3)CC2)cc(Br)c1O,3.3
16,CC12CC3CC(C)(C1)CC(C(=O)NC(=S)N1CCCCC1)(C3)C2,6.36
17,O=C1CNC(=S)N1Cc1ccc(Cl)cc1,0.829
18,Cc1ccc(-c2noc(CCC(=O)Nc3cccc(C#N)c3)n2)cc1,-13.8
19,O=C(Nc1ccc(S(=O)(=O)Nc2ncccn2)cc1)c1ccccc1NS(=O)(=O)c1ccc(F)cc1,9.91
20,COc1cccc(-c2noc(C3CCCN(S(=O)(=O)c4cccc(Cl)c4C)C3)n2)c1 (stereo not drawn),-4.59
21,CN(Cc1ccc(F)cc1)C(=O)c1ccc(NS(=O)(=O)c2ccccc2)cc1,-34.3
22,Cn1c(=O)n(Cc2ccco2)c(=N)c2c3c(sc21)CCCC3,-31.4

row,Structure (SMILES),"hERG current change (%, negative = inhibition) at 10uM [%]"
1,COc1ccc(CCNS(=O)(=O)c2ccc(Cl)s2)cc1OC,-4.35
2,Cc1ccc2c(CSc3nc4nc(C)cc(C)n4n3)cc(=O)oc2c1,-21.8
3,CCc1cc(C(=O)N=Nc2c(O)[nH]c3c(Br)cc(Br)cc23)c2ccccc2n1,16.1
4,CCCCCC(=O)Nc1ccc(C2C(=O)c3ccccc3C2=O)cc1,8.97
5,COc1ccccc1CNCC(O)Cn1c2ccccc2c2ccccc21 (stereo not drawn),-45.5
6,CC1CN(C(=O)CCCN2C(=O)c3ccccc3C2=O)CC(C)O1 (stereo not drawn),14.3
7,CC[C@@H](C)[C@H](NS(=O)(=O)c1ccc(C)cc1)C(=O)N1CCC(C(=O)NCC(=O)O)CC1,3.83
8,CCOC(=O)c1cc2cc3ccccc3cc2oc1=O,-1.57
9,CN1/C(=C\C=C2/C(=O)Oc3ccccc3C2=O)C(C)(C)c2ccccc21,3.09
10,Cc1ccc(N2CC(C(=O)N3CCCCCC3)CC2=O)cc1 (stereo not drawn),11.5
11,CCOC(=O)C1C(=O)NC(c2ccccc2)=NC1c1ccc(Cl)cc1 (stereo not drawn),-5.94
12,CC(=O)c1cc(CC=C(C)C)c(O)c(CC=C(C)C)c1O,9.26
13,CCOc1ccc(/C=N/N2CCN(Cc3ccccc3)CC2)cc1,4.19
14,CCC(=O)c1ccc(Oc2nc3c(c(=O)n(C)c(=O)n3C)n2CC)cc1,-2.89
15,COc1ccc(CN2C(=O)NC3(CCOc4ccccc43)C2=O)cc1F (stereo not drawn),-13.4
16,O=C(CN1C(=O)CSc2ccccc21)Nc1ccccc1C(=O)N1CCOCC1,7.69
17,CN(c1ccccc1)S(=O)(=O)c1cccc(NC(=O)c2nn(C)c(=O)c3ccccc23)c1,-23.8
18,Cc1ccc(C(=O)COC(=O)CCN2C(=O)C3C4CCC(C4)C3C2=O)cc1C (stereo not drawn),7.04
19,CCc1ccc(C(=O)COC(=O)CNC(=O)c2ccc(N3C(=O)c4ccccc4C3=O)cc2)cc1,-7.76
20,Clc1cc(NC2CCCCC2)ncn1,26.3
21,COC(=O)c1ccc(C2C(C(=O)Nc3ccc(C)cc3C)=C(C)Nc3ncnn32)cc1 (stereo not drawn),-3.95
22,CN(C)S(=O)(=O)c1ccc(C(=O)Nc2nnc(SCc3ccccc3)s2)cc1,18.3

row,Structure (SMILES),"hERG current change (%, negative = inhibition) at 10uM [%]"
1,CCOCCc1c(O)nc(SCCOc2ccc(C)c(C)c2)[nH]c1=O,7.24
2,Cc1ccc(-n2nnnc2-c2ccccc2)cc1,-1.18
3,CCc1ccccc1NC(=O)Nc1ccc2c(c1)OCO2,26.6
4,CCN(CC)CCN1C(=O)c2ccccc2NC1c1cc(OC)c(OC)c(OC)c1 (stereo not drawn),-40.7
5,O=C(COC(=O)C1CC(=O)N(CCc2ccccc2)C1)c1ccc[nH]1 (stereo not drawn),-41.8
6,FC(F)(F)c1ccc(Oc2ccccc2Cl)nc1,14.3
7,CC1(c2ccc3c(c2)OCCO3)NC(=O)N(CC(=O)Nc2c(F)cccc2F)C1=O (stereo not drawn),-0.206
8,CN(C)CCCC(C)(O)C(Cc1ccccc1)c1ccccc1.Cl (stereo not drawn),7.05
9,CC(=O)Nc1cccc(NC(=O)COc2ccc3c(c2)CCC3)c1,-14.2
10,CCCn1c(N)c(N(CCOC)C(=O)c2ccc(C#N)cc2)c(=O)[nH]c1=O,27.6
11,CCOC(=O)Cc1csc(NS(=O)(=O)c2ccc([N+](=O)[O-])cc2)n1,7.89
12,COC(=O)c1ccc(-n2cnc3ccccc32)nc1,10.2
13,COc1ccccc1/C=C(/CC(=O)NCc1ccccc1)c1nc2ccccc2s1,7.17
14,CCN(CC)c1ccc(NC(=O)c2cc(OC)cc(OC)c2)c(C)c1,-19.9
15,CCCCSc1nnc2nc(C)cc(C)n12,-16
16,CCn1nc(C)c(Br)c1C(=O)Sc1ccccc1Cl,21.2
17,O=C(OC1CCOC1=O)c1ccc(N2CCCC2)c([N+](=O)[O-])c1 (stereo not drawn),-13.9
18,Cc1cc(NC(=O)COC(=O)C2CC2)ccc1Br,-4.02
19,CC(=O)c1ccc(N(C(=O)CNC(=O)c2ccco2)C(C(=O)NC2CCCC2)c2ccco2)cc1 (stereo not drawn),8.35
20,COc1ccc(S(=O)(=O)N2CCOCC2)cc1C(=O)N1CCCCC1,-31.6
21,NC(=O)CCn1c(=O)oc2ccccc21,-6.59
